Where “and” joins values, the source holds several entries; their conditions need not be identical. Equal values may be shown once. Out of some 270,000 compounds screened, about 5,800 (2.1%) were called active. This list was built around the results that the source calls inconclusive (neither active nor inactive); the mix of calls is not that of the screen. Calls come from the whole dose curve; as a rule, active = well fitted inhibition curve with a large enough effect; inconclusive = small, poorly fitted or top-dose-only effect; inactive = flat fitted curve, though single readings scatter. A potency beside an inconclusive call is a rough fit, not a confirmed value.
Target: Microtubule-associated protein tau (Homo sapiens) (UniProt P10636)
Assay: qHTS for Inhibitors of Tau Fibril Formation, Thioflavin T Binding; note: nearly all actives have a fitted effect of over 55% in size
Conditions: recombinant tau K18 P301L, heparin-induced fibrillization, ThT fluorescence; series mostly up to 57.4 µM
Procedure, shortened: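 ThT emission at 510 nm, taken 1 hr after adding 30 uM dye, quantifies aggregates formed when 20 uM heparin acts on human tau K18 P301L for 6 hr at 37 C.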
Potency is the fitted concentration of half-maximal effect; tags give direction and shape of the fitted curve.

Sequence of UniProt P10636 (P10636 whole entry, looked up): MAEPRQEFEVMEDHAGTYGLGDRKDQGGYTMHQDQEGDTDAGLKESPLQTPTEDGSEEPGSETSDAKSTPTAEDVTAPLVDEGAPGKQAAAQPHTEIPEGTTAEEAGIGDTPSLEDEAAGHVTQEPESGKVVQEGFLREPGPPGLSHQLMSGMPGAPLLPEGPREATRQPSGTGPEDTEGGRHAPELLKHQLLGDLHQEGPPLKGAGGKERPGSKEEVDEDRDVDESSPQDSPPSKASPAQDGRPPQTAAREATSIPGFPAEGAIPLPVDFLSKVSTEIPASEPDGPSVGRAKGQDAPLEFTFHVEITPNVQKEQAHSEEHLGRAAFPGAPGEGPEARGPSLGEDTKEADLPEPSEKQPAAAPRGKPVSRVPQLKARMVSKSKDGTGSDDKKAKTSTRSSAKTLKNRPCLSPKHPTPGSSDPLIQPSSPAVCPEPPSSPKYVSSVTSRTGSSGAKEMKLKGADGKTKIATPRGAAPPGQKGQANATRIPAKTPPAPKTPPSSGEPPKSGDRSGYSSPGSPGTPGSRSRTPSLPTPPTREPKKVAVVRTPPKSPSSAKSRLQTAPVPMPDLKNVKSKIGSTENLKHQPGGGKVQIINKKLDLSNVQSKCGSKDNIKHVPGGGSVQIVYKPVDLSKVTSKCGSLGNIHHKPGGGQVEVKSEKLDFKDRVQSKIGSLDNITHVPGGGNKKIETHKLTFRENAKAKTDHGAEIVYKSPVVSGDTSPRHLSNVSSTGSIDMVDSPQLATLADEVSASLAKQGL

Compound	Potency
Cc1cccc(CC2SC(N3CCN(c4ccccc4)CC3)=NC2=O)c1 (stereo not given)	inconclusive: 5.01 µM [inhibitor, partial curve]
Cc1nnc(SCC(=O)Nc2ccc(Br)cc2)[nH]c1=O	inactive
COc1cccc(-c2nc(CSCC(=O)NCCc3ccc(Cl)cc3)c(C)o2)c1	inconclusive: 39.8 µM [inhibitor, single point]
CC(C)(O)C#Cc1ccc([C@@H]2C[C@H]3CN(c4ccccc4)C(=O)[C@]34CCCN24)s1	inconclusive: 25.1 µM [inhibitor, single point]
CCn1cc(C(=O)NCc2ccccc2)c(=O)c2cc(F)c(N3CCN(C(=O)c4ccco4)CC3)cc21	inconclusive: 11.2 µM [inhibitor, partial curve]
CN1CCN(C(=S)c2ccc(N(C)C)cc2)CC1	inactive
Nc1cc(Cl)nc(N/N=C/c2ccc([N+](=O)[O-])cc2)n1	active: 5.62 µM
CCC1(CC)Cc2ccccc2-c2nc(NCCO)[nH]c(=O)c21	inactive
COCCCN(CCCN)Cc1ccco1	inactive
O=C(CCSc1nc(-c2ccco2)cc(C(F)(F)F)n1)N1CCN(c2ccccc2)CC1	inconclusive: 22.4 µM [inhibitor, partial curve]
CCCCN(CCCC)CC(O)Cn1cc(/C=C/C(=O)c2ccccc2)c2ccccc21 (stereo not given)	inconclusive: 25.1 µM [inhibitor, partial curve]
CSc1nc(Oc2ccc3ccccc3c2)c2ccccc2n1	inconclusive: 10 µM [inhibitor, partial curve]
CCOC(=O)c1cnn(-c2ncnc3sc4c(c23)CCC4)c1N	inconclusive: 5.62 µM [inhibitor, partial curve]
COc1cccc(NC(=O)Nc2cc(C)ccc2F)c1	inactive
CSc1nc(SCC(=O)NCc2ccco2)c2c3c(sc2n1)COC(C)(C)C3	inconclusive: 14.1 µM [inhibitor, partial curve]
O=c1cc(N2CCc3ccccc3C2)[nH]c(=O)n1-c1ccccc1Cl	inconclusive: 39.8 µM [inhibitor, single point]
CC(=O)OC[C@H]1O[C@@H](n2ccc(=O)[nH]c2=S)C(OC(C)=O)C1OC(C)=O (stereo not given in full)	inactive
CCN(CC)S(=O)(=O)c1nnc(NC(=O)COc2ccc(Cl)cc2)s1	inconclusive: 14.1 µM [inhibitor, partial curve]
CCCn1nc([N+](=O)[O-])c(C(C#N)c2nc3ccccc3o2)c(Cl)c1=O (stereo not given)	active: 7.08 µM
CCCCSc1ncnc2c1c(-c1ccccc1)cn2-c1cccc(F)c1	inactive
Cc1cc(=O)n(Cc2cccc(Cl)c2)c2c1c(C)nn2-c1ccccc1	inactive
CCN1CCN(c2c(S(=O)(=O)c3ccc(C)c(C)c3)cnc3cc(OC)c(OC)cc23)CC1	inconclusive: 25.1 µM [inhibitor, partial curve]
CCCCOC(=O)c1c(C)oc2ccc(NS(=O)(=O)c3ccc4c5c(cccc35)C(=O)N4)cc12	inconclusive: 35.5 µM [inhibitor, single point]
CCOc1ccc(CC(=O)NCCc2sc3nc(-c4ccc(OC)cc4)nn3c2C)cc1	inconclusive: 14.1 µM [inhibitor, partial curve, poor fit]

Compound	Potency
CCOc1cc(CNc2ccc(O)cc2)ccc1OCc1ccc(Cl)cc1	active: 15.8 µM
Cc1ccc(-c2cc(-c3ccccc3)[nH]c(=S)c2C#N)cc1	inconclusive: 31.6 µM [inhibitor, partial curve]
O=C(CSc1ncc(-c2ccc(F)cc2)n1Cc1ccco1)Nc1ccc2c(c1)OCO2	inconclusive: 20 µM [inhibitor, single point]
c1ccc(CCCNc2ncnc3nc[nH]c23)cc1	inactive
CCCN(CC1CC1)C(=O)CSc1ncnc2sc(C)c(C)c12	inactive
O=C(Nc1nc2c(cc3c4c(cccc42)CC3)s1)c1ccccc1Cl	inconclusive: 4.47 µM [inhibitor, full curve, poor fit]
Cc1ccc(N2C(=S)N=C(Nc3ccccc3C)C23CCOC(C)(C)C3)cc1 (stereo not given)	inactive
COc1ccccc1/C=C(/C(=O)OCC(=O)Nc1ccc(N(C)C)cc1)c1ccccc1	inconclusive: 25.1 µM [inhibitor, partial curve]
COc1ccc(NC(=O)c2ccc(-c3nc(CSc4ccccc4)c(C)o3)cc2)cc1OC	inconclusive: 0.891 µM [inhibitor, full curve, poor fit]
S=c1[nH]nc(COc2ccccc2)n1/N=C/c1ccc(Br)s1	inconclusive: 22.4 µM [inhibitor, partial curve]
CCOCCCNC(=O)C1CCC(CNS(=O)(=O)c2ccc(NC(C)=O)cc2)CC1 (stereo not given)	inactive
Oc1ccc(Nc2nc(-c3ccc4ccccc4c3)cs2)cc1	active: 5.01 µM
CCOC(=O)C(CC)Sc1ccc2nnc(CCNS(=O)(=O)c3ccc(C)cc3)n2n1 (stereo not given)	inactive
O=C(C/C=N/OCc1ccc(F)cc1Cl)c1cnc(-c2ccccc2)s1	inconclusive: 15.8 µM [inhibitor, partial curve]
CCn1c(O)c(N=NC(=O)c2cccnc2)c2cc(Br)ccc21	inconclusive: 28.2 µM [inhibitor, partial curve]
CCn1c(C(=O)N2CCC(C(=O)NCCc3ccc(OC)cc3OC)CC2)cc2sccc21	inconclusive: 35.5 µM [inhibitor, partial curve]
COc1ccc(NC(=O)O/N=C/c2ccccc2Cl)cc1	inconclusive: 31.6 µM [inhibitor, single point]
Cc1cc(/C=N/NC(=O)Cn2c3ccccc3c(=O)c3ccccc32)c(C)n1-c1ccccc1	inconclusive: 11.2 µM [inhibitor, partial curve]
COc1ccc(C(=O)NC(=S)Nc2ccc(Cl)c(C(=O)O)c2)cc1	inconclusive: 10 µM [inhibitor, partial curve]
Cc1nc2ccccc2n1CCc1nc2c3ccccc3nc(SCC(=O)NCc3ccco3)n2n1	inconclusive: 35.5 µM [inhibitor, partial curve]
Cc1ccc(N2CCN(C(=O)Nc3cccc([N+](=O)[O-])c3)CC2C)cc1 (stereo not given)	inconclusive: 20 µM [inhibitor, single point]
Cc1cc(C)cc(NS(=O)(=O)c2ccc3c(c2)NC(=O)C(C)S3)c1 (stereo not given)	inactive
NC(=O)C1=C[C@@H](c2csc3ccccc23)C[C@@H](OCCCCO)O1	inconclusive: 0.891 µM [inhibitor, single point]
CCOC(=O)c1c(NC(C)=O)sc2c1CCC(C=O)=C2Sc1ccccc1	active: 14.1 µM

Compound	Potency
CCCSCCCNC(=O)C1CCN(c2nn3cc(-c4ccc(F)cc4)nc3s2)CC1	inconclusive: 0.0398 µM [inhibitor, full curve, poor fit]
Cc1c(C(=O)N2c3ccccc3Sc3ccccc32)cccc1[N+](=O)[O-]	inactive
Cc1ccc2nc(-c3ccc(O)cc3)c(Nc3ccc4c(c3)OCCO4)n2c1	inactive and inconclusive: 22.4 µM [inhibitor, partial curve]
CC(C)Cn1c(=O)c2ccccc2n2c(CCC(=O)N3CCN(c4ccccc4F)CC3)nnc12	inconclusive: 15.8 µM [inhibitor, partial curve]
CCCCOc1ccc(C(=O)CCN2CCOCC2)cc1	inconclusive: 17.8 µM [inhibitor, partial curve]
COc1cc(OC)cc(C(=O)Nc2ccc3nc(N4CCCCC4)cc(C)c3c2)c1	inconclusive: 2 µM [inhibitor, full curve]
N#CC1=C(SCC(N)=O)NC2=C(C(=O)c3ccccc32)C1c1ccc(Cl)cc1 (stereo not given)	active: 14.1 µM
COc1ccc(/C=N/NC(=O)/C(=C/c2ccccc2)CCO)cc1	inconclusive: 17.8 µM [inhibitor, partial curve, poor fit]
N#Cc1c(N)oc(-c2ccco2)c1-c1ccco1	active: 14.1 µM
C=CCOC(=O)C(C#N)c1nc2ccccc2nc1N1CCN(c2ccccc2OC)CC1 (stereo not given)	inconclusive: 8.91 µM [inhibitor, partial curve]
Cc1ccc(NC(=S)Nc2ccc3cn[nH]c3c2)cc1	inconclusive: 20 µM [inhibitor, partial curve]
COc1ccc(-c2cc(-c3ccc(OC)cc3)c(C#N)c(SC)n2)cc1	inactive
COc1ccc(/C=N/OCC(=O)N=Nc2c(O)[nH]c3ccc(Br)cc23)cc1	active: 5.01 µM
COc1ccc(N2CCN(Cc3ccc(Br)s3)CC2)cc1	inconclusive: 31.6 µM [inhibitor, single point]
O=C(CSc1ccccc1)Nc1nnc(COc2ccc(Cl)cc2)s1	active: 28.2 µM
CCOc1ccc(C2c3c(oc4ccccc4c3=O)C(=O)N2CCCN2CCOCC2)cc1OCC (stereo not given)	inconclusive: 35.5 µM [inhibitor, single point]
COc1cc(C)ccc1OCCSc1nc2ccc(NC(=O)c3ccc(F)cc3)cc2s1	inconclusive: 0.447 µM [inhibitor, full curve, poor fit]
CCCCOc1ccc(C(=O)Nc2ccc(-c3nc4ccccc4s3)cc2C)cc1	inconclusive: 0.447 µM [inhibitor, full curve]
COCC(=O)Nc1nc(-c2ccc([N+](=O)[O-])cc2)cs1	inconclusive: 4.47 µM [inhibitor, full curve]
CCCCC(=O)/C=C/n1c(=S)oc2ccccc21	active: 14.1 µM
Cc1ccc(NC(=S)NC(C)(C)C)c([N+](=O)[O-])c1	inactive
O=C(COc1ccccc1F)Nc1ccc(-c2nc3ccccc3s2)cc1	inconclusive: 0.501 µM [inhibitor, full curve]

— PubChem BioAssay AID1460 (National Center for Advancing Translational Sciences (NCATS), 2008)
